Measured values reported in PubChem BioAssay AID1346378 (National Center for Advancing Translational Sciences (NCATS), 2018).
Several values for one entry are separate records, joined by “and”; a condition that tells them apart may be missing. Equal entries are not always repeated. About 540 (0.13%) of roughly 420,000 compounds were called active. The shares of active, inactive and inconclusive entries below differ from those in the screen. Rule as the data show it: active = activity change below about -50%; inconclusive = mostly about -30% to -49%; inactive = weaker than that.
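Also: -100% = wells without enzyme as full effect.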

These compounds were tested against Phosphatidylinositol 4-kinase type 2-alpha (Homo sapiens) (UniProt Q9BTU6) (assay: qHTS for small molecular inhibitors of PI4K2A). Conditions: purified PI4K2A, ADP-Glo luminescence, 1 h; at 76.9 µM, stronger effect = lower value.
Sequence of UniProt Q9BTU6 (Q9BTU6 whole entry, looked up): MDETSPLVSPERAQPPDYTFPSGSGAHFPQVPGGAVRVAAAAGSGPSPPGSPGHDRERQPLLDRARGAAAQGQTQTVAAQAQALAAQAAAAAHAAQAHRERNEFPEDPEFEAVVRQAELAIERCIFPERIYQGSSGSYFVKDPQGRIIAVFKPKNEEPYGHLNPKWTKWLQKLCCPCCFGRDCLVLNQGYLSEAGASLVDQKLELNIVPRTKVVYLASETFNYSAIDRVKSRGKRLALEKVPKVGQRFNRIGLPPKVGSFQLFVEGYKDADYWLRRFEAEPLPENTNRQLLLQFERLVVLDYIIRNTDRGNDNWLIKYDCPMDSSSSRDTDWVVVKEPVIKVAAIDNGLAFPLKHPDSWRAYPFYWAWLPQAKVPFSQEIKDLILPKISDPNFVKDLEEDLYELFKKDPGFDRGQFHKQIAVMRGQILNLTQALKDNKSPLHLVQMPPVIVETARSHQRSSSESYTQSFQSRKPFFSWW
Procedure, shortened: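 In this quantitative HTS, ADP production by PI4K2A was quantified luminescently after 1 h at ambient temperature; 100 microM adenosine served as plate-quality control.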
For `O=C1C(SCCO)=C(SCCO)C(=O)c2ccccc21`, the activity change, negative = inhibition was inconclusive: -48.3%. For `COC(=O)c1cn(CC(=O)N2CCCCCC2)c2ccccc12`, the activity change, negative = inhibition was inactive: 2.02%. `Cc1c(C)c2ccc(OCC(=O)N[C@@H](Cc3c[nH]c4ccccc34)C(=O)O)cc2oc1=O` was tested, and the activity change, negative = inhibition was inconclusive: -45.2%. `COc1ccc(C(=O)Oc2ccc3oc(=O)sc3c2)cc1` was tested, and the activity change, negative = inhibition was inconclusive: -37.4%. `COC(=O)c1nn(-c2ccc(-c3ccccc3)cc2)cc1O` was tested, and the activity change, negative = inhibition was inconclusive: -48%. With `CCCN(CCC)CCCOC(=O)c1ccc(Cl)cc1Cl` the activity change, negative = inhibition was inactive: 7.68%. In the case of `N#CC1(c2ccc(NC(=O)c3ccccc3F)cc2)CCCC1`, the activity change, negative = inhibition is reported as inconclusive: -30.1%. With `Cc1cc(-c2csc(N)n2)c(C)n1Cc1ccco1` the activity change, negative = inhibition was inconclusive: -44.3%. In the case of `Cc1ccccc1NC(=O)CN1C(=O)N/C(=C\c2ccccc2OCc2ccc(C(=O)O)cc2)C1=O`, the activity change, negative = inhibition is reported as active: -50.8%. `CCCc1[nH][nH]c(=O)c1C(c1ccc(Br)cc1)C(C#N)C#N` (stereo not given) was tested, and the activity change, negative = inhibition was inactive: 5.89%. `Cc1ccccc1-c1nc(-c2cccnc2)no1` was tested, and the activity change, negative = inhibition was inactive: -1.8%. In the case of `CC1=NN(C(=O)c2ccncc2)C(=O)C1N=Nc1ccc2ccccc2c1` (stereo not given), the activity change, negative = inhibition is reported as inconclusive: -30.8%. In the case of `COc1ccc(C(c2c(C)[nH]n(-c3ccccc3)c2=O)c2c(C)[nH]n(-c3ccccc3)c2=O)cc1OC`, the activity change, negative = inhibition is reported as inactive: -17.6%. In the case of `O=C1CCn2c1c(O)c1ccccc1c2=O`, the activity change, negative = inhibition is reported as inconclusive: -38%. With `CC1(C)CCC2=C(O1)c1ccccc1C(=O)C2=O` the activity change, negative = inhibition was active: -51.7%. With `c1cc2c(cc1C1=NNC(=NC3CC3)SC1)OCCO2` the activity change, negative = inhibition was inconclusive: -33%. In the case of `O=C(O)c1cccc2c1Cc1cc(Cl)ccc1-2`, the activity change, negative = inhibition is reported as inactive: -2.03%. With `O=C(Nc1ccccc1Cl)c1ccc2nccnc2c1` the activity change, negative = inhibition was inactive: -15%. `C=CCSc1nc2c(N)ncnc2n1C1OC(CO)C(O)C1O` (stereo not given) was tested, and the activity change, negative = inhibition was inconclusive: -33.4%. `CC1=Nc2ccccc2/C1=C/c1sc(=S)n(-c2cccc(C(=O)O)c2)c1O` was tested, and the activity change, negative = inhibition was inactive: -1.49%. For `CCN(CC)c1ccc(C(=C2C=CC(=[N+](CC)CC)C=C2)c2ccc(S(=O)(=O)O)cc2S(=O)(=O)[O-])cc1`, the activity change, negative = inhibition was active: -56.4%. `CC1CCC2(CC1)NC(=O)N(CC(=O)Nc1sc3c(c1C(N)=O)CCC3)C2=O` (stereo not given) was tested, and the activity change, negative = inhibition was inconclusive: -38.3%. For `COc1cccc(C(=O)Nc2ccc(N3CCCC3)cc2)c1`, the activity change, negative = inhibition was active: -68.3%. For `CC[n+]1c(/C=C/c2ccc(N(C)C)cc2)ccc2ccccc21`, the activity change, negative = inhibition was inconclusive: -37.1%. In the case of `CCOC(=O)Nc1ccc(NCc2ccc(F)cc2)nc1N`, the activity change, negative = inhibition is reported as inconclusive: -46.4% and inconclusive: -39.5%. In the case of `Cc1nc2sc(C(N)=O)c(N)c2c2c1CCCC2`, the activity change, negative = inhibition is reported as inactive: -11.2%. With `Cc1ccc2nc(N3C(=O)C(O)=C(C(=O)c4ccco4)C3c3cccs3)sc2c1` (stereo not given) the activity change, negative = inhibition was inactive: 0.431%. `Cn1c(=O)[nH]c(=O)c2c1nc([N+](=O)[O-])n2Cc1ccccc1` was tested, and the activity change, negative = inhibition was inconclusive: -36.7%. In the case of `O=C1C=CC(=Nc2cccc3c2C(=O)c2ccccc2-3)O1`, the activity change, negative = inhibition is reported as inactive: -18.8%. `Cc1cc(-c2csc(NC(=O)c3ccc(=O)[nH]c3)n2)c(C)n1Cc1ccco1` was tested, and the activity change, negative = inhibition was active: -61.8%. `COc1cccc(/C=C2\Oc3ccc(O)cc3C2=O)c1O` was tested, and the activity change, negative = inhibition was active: -60.5%. For `Cn1c(=O)c2c(ncn2CCO)n(C)c1=O`, the activity change, negative = inhibition was inactive: -4.67% and inactive: -5.68%. With `CCCCN(C)C(=O)c1cc2cc3ccc(OC)cc3nc2o1` the activity change, negative = inhibition was inconclusive: -31.9%. For `COc1ccccc1CNC(=O)COC(=O)c1cc(-c2ccco2)nc2ccccc12`, the activity change, negative = inhibition was active: -52.7%. With `COc1cccc(CNC(=O)Nc2cn(CC(C)C)c(=O)c3ccccc23)c1` the activity change, negative = inhibition was inconclusive: -35.6%. For `CCOc1ccc(C2N(c3ccc(Cl)cc3)C(=O)C3CCCN32)cc1OC` (stereo not given), the activity change, negative = inhibition was inconclusive: -33.6%. With `Cc1ccc(NC(=O)C2=C(c3ccccc3)S(=O)(=O)CCS2(=O)=O)cc1` the activity change, negative = inhibition was inconclusive: -32.6%. In the case of `c1ccc2cc(Cn3ccc4ccc(-c5ccc6cc[nH]c6c5)cc43)ccc2c1`, the activity change, negative = inhibition is reported as inconclusive: -47.7%. With `O=C(Nc1cccc(C(F)(F)F)c1)c1ccc2nc(-c3ccco3)c(-c3ccco3)nc2c1` the activity change, negative = inhibition was active: -52.9%. `CCc1nc2ccccc2c(=O)n1NC(=O)c1c(O)c2ccccc2[nH]c1=O` was tested, and the activity change, negative = inhibition was inactive: 5.67%. `O=C(Nc1nc2ccccc2[nH]1)c1ccccc1F` was tested, and the activity change, negative = inhibition was active: -79.9%. For `CS(=O)(=O)c1nc(S(=O)(=O)c2ccc(Cl)cc2)c(N2CCC(C(N)=O)CC2)s1`, the activity change, negative = inhibition was inactive: -2.75%. With `Fc1cccc(Cc2c(-c3ccco3)nc3ccc(Br)cn23)c1` the activity change, negative = inhibition was inconclusive: -31.4%. With `COc1cccc2cc(C(=O)NCCc3c[nH]c4ccccc34)c(=O)oc12` the activity change, negative = inhibition was inconclusive: -32.7%. For `C/C(=N\NC(=O)c1n[nH]c2c1CCC2)c1ccco1`, the activity change, negative = inhibition was inconclusive: -35.7%. In the case of `c1ccc(-c2cn3nc4c(nc3n2)CCCC4)cc1`, the activity change, negative = inhibition is reported as active: -52.5%. `CC(=O)c1cccc(NC(=O)C2CCCN2S(=O)(=O)c2cccs2)c1` (stereo not given) was tested, and the activity change, negative = inhibition was inactive: 1%. With `O=C(CN1C(=O)C(=O)N(Cc2ccco2)C1=O)c1c[nH]c2ccccc12` the activity change, negative = inhibition was inactive: -20.9%. In the case of `COc1cc(C2Nc3cccc4cccc(c34)N2)ccc1OC(C)=O`, the activity change, negative = inhibition is reported as inconclusive: -48.2%. In the case of `O=C(CS(=O)(=O)c1ccccc1)c1cc2cc(F)ccc2oc1=O`, the activity change, negative = inhibition is reported as inconclusive: -31.1%. With `O=C(NC1(O)C(=O)c2ccccc2C1=O)c1c(Cl)cccc1Cl` the activity change, negative = inhibition was inconclusive: -39.7%. For `O=C(O)c1ccc2nc3c(nc2c1)-c1ccccc1C3=O`, the activity change, negative = inhibition was inconclusive: -33.6%. In the case of `O=C(Cc1cccs1)N=Nc1c(O)[nH]c2ccccc12`, the activity change, negative = inhibition is reported as inactive: -3.24%. For `Cc1nn(CCC(=O)NCc2ccc(Cl)cc2)c(=O)c2nn(-c3ccccc3)c(C)c12`, the activity change, negative = inhibition was inactive: -0.958%. With `COc1ccc(C2=CC3=C(Br)C(=O)C(C)(OC(=O)C4CCCC4)C(=O)C3=CO2)cc1` (stereo not given) the activity change, negative = inhibition was inconclusive: -31.6%. `Cc1cc(NC(=O)c2ccccc2)ncc1NC(=O)c1ccco1` was tested, and the activity change, negative = inhibition was inconclusive: -48.3%. For `Cc1cc(NS(=O)(=O)c2ccccc2)c(C)c(Cl)c1O`, the activity change, negative = inhibition was inactive: -5.32%. For `Oc1csc(Cc2nc(-c3ccc4ccccc4c3)cs2)n1`, the activity change, negative = inhibition was inconclusive: -31.6%. `COC(=O)c1ccccc1NC(=O)C1=C(C)C(=O)OC12CCCCCC2` was tested, and the activity change, negative = inhibition was inactive: -3.16%. For `CCN(CC)c1ccc2c(c1)oc(=O)c1c(Cl)cc(=O)oc12`, the activity change, negative = inhibition was inconclusive: -37.4%. `O=C(O)c1ccc2nc(-c3cc4cccc(O)c4oc3=O)[nH]c2c1` was tested, and the activity change, negative = inhibition was active: -53.6%. `COc1ccccc1C=C1CCc2ccccc2C1=O` was tested, and the activity change, negative = inhibition was active: -62.6%. `COc1ccc(O)c(C(c2c(C)[nH][nH]c2=O)c2c(C)[nH][nH]c2=O)c1` was tested, and the activity change, negative = inhibition was active: -62%. `CCCCOc1cc(=O)[nH]c(=O)[nH]1` was tested, and the activity change, negative = inhibition was active: -51.2%. In the case of `CCOc1ccc(-n2c(SCC(=O)NCc3ccco3)nc3ccccc3c2=O)cc1`, the activity change, negative = inhibition is reported as inactive: -3.82%. In the case of `Cc1c(C(c2cccc(O)c2)c2c(C)n(C)n(-c3ccccc3)c2=O)c(=O)n(-c2ccccc2)n1C`, the activity change, negative = inhibition is reported as inactive: -1.48%. For `Nn1cnnc1N/N=C/c1ccc(F)cc1`, the activity change, negative = inhibition was inconclusive: -35.5%. `O=C(Nc1cccc2nsnc12)c1ccc(-c2ccc(Br)cc2)o1` was tested, and the activity change, negative = inhibition was inconclusive: -42.7%. For `O=C(Nc1ncccn1)c1cc([N+](=O)[O-])cc([N+](=O)[O-])c1`, the activity change, negative = inhibition was inactive: 0.186%. For `CN(C)/C=C1\SC(=S)N(c2ccc(F)cc2)C1=O`, the activity change, negative = inhibition was inactive: 2.48%. For `N#Cc1c(N2CCCC(O)C2)nc(N)c2c(N)nc3c(c12)CC(=O)N3C12CC3CC(CC(C3)C1)C2` (stereo not given), the activity change, negative = inhibition was inconclusive: -45.2%. `O=C(CSc1ccc(F)cc1)N1CCC(c2nc3ccccc3s2)CC1` was tested, and the activity change, negative = inhibition was inactive: -5.35%. `N/C(=N\OC(=O)c1ccc2ccccc2c1)c1ccccn1` was tested, and the activity change, negative = inhibition was active: -58%. With `CN(C)c1ccc(/C=N/NC(=O)c2ccccn2)cc1` the activity change, negative = inhibition was active: -50.1%. `CC(C(=O)O)N1C(=O)/C(=C/C=C/c2ccco2)SC1=S` (stereo not given) was tested, and the activity change, negative = inhibition was inconclusive: -48.7%. For `C/C(=C\C(=O)c1cccnc1)Nc1ccc(O)cc1`, the activity change, negative = inhibition was active: -60.7%. In the case of `CN(/N=C/c1ccncc1)C1=NS(=O)(=O)c2ccccc21`, the activity change, negative = inhibition is reported as inactive: 12.8%. With `COc1ccc(CC(N)c2csc(Nc3cc(Oc4ccccc4)ncn3)n2)cc1` (stereo not given) the activity change, negative = inhibition was inactive: 0.0853%. In the case of `CCOC(=O)N1CCN(C2=C(NS(=O)(=O)c3ccc(NC(C)=O)cc3)C(=O)c3ccccc3C2=O)CC1`, the activity change, negative = inhibition is reported as inconclusive: -31.7%. `O=C1/C(=C/c2ccncc2)CCc2ccccc21` was tested, and the activity change, negative = inhibition was inconclusive: -39.5%. `CCN(CC(=O)Nc1c(C(=O)OC)[nH]c2ccc(C)cc12)c1ccc2c(c1)OCO2` was tested, and the activity change, negative = inhibition was inactive: 3.13%. For `Cc1ccc(-c2cnn(-c3ccccc3)c2N)cc1`, the activity change, negative = inhibition was active: -76.1%. With `O=C(Nc1nc(-c2ccncc2)cs1)C1c2ccccc2Oc2ccccc21` the activity change, negative = inhibition was inactive: -0.536%. In the case of `NC(=O)N/N=C/c1sc(N2CCCCC2)nc1-c1cccs1`, the activity change, negative = inhibition is reported as inconclusive: -39.4%. `O=C(Nc1ccccc1F)c1ccc2c(Cl)c3c(nc2c1)CCC3` was tested, and the activity change, negative = inhibition was inconclusive: -37.8%. With `CC1=NN(c2cccc(C(=O)O)c2)C(=O)/C1=C\C=C\c1ccco1` the activity change, negative = inhibition was inconclusive: -43.9%. For `CCCCCNC(=O)C(=O)NCC(c1ccc2c(c1)OCO2)N1CCOCC1` (stereo not given), the activity change, negative = inhibition was inactive: 0.604%. In the case of `O=c1[nH]c(Nc2ccccc2)cc2ccccc12`, the activity change, negative = inhibition is reported as inconclusive: -44%. For `C=C(C)CN(CC)c1nc(N)c2c(N)nc3c(c2c1C#N)CC(=O)N3C12CC3CC(CC(C3)C1)C2`, the activity change, negative = inhibition was inconclusive: -37.6%. For `CCCc1cc(=O)[nH]c(SCC(=O)CSc2nc(CCC)cc(=O)[nH]2)n1`, the activity change, negative = inhibition was inconclusive: -33.6%.
